From paper PMC6212398, “Competing protein-protein interactions regulate binding of Hsp27 to its client protein tau” (Nature Communications, 2018) come the findings set out here.

Sequences of proteins named here, by UniProt entry; tags and fusion partners are left off. A change or cut given only in a name is not applied to a line headed by its entry. Residues count along the entry.
UniProt P04792: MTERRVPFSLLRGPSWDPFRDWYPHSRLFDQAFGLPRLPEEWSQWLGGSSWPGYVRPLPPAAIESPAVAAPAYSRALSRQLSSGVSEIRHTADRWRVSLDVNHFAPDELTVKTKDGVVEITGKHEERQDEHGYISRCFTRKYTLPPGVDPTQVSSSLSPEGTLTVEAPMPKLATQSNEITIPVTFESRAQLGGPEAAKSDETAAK
Hsp27 alpha-crystallin domain (ACD, residues Q80–S176): residues 80-176 of P04792

No constants are given. Whether binding was seen depends on the method and setting. Some binding calls cover weakened binding; strength is not graded here.

The target in assay [1] is Hsp27 alpha-crystallin domain (ACD, residues Q80–S176) (human) (UniProt P04792). The experiment in a line: NMR titration; 1H-15N HSQC of 15N Hsp27 ACD (150 µM) alone or with 250 µM K18, 0N4R or Hsp27 IPV peptide; 50 mM sodium phosphate, 100 mM NaCl, pH 7.4; 32 °C; both purified.
Assay [2] shares this target. In words: NMR titration; titration of the 6-mer PHF6* peptide into 15N Hsp27 ACD, 1H-15N spectra (Supplementary Figure 3D); both purified.
The target in assay [3] is full-length human Hsp27 (wild type) (human) (UniProt P04792). The experiment in a line: condition: peptide (1 mM) titrated into 100 µM Hsp27; ITC; peptide (1 mM) titrated into a cell with Hsp27 proteins (100 µM); SEC buffer (50 mM sodium phosphate, 100 mM NaCl); 25 °C; one-site binding model; both purified.

For the molecule EITIPVTFE [Hsp27 IPV peptide (native 9-mer …)], the binding result in assay [1] is recorded as “binds weakly”.

VQIVYK [6-mer PHF6* peptide (VQIVYK)]: in assay [2], the binding entry is listed as “binds weakly”.

EITIPVTHE [Hsp27 IPV H peptide (…)]: in assay [3], the binding entry is on record as “no binding”.
